Measurements published in the supplement of paper PMC12230231.

The sequences below were run on SIVsab (simian immunodeficiency virus of sabaeus monkeys), single-cycle GFP reporter, in CRFK cells (assay: enrichment among uninfected cells over input (fold); higher = stronger restriction). Conditions: library: human / rhesus combinations.
Procedure: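 Pools of CRFK cells expressing variants of the TRIM5α v1 loop were challenged with the single-cycle reporter, sorted by GFP and sequenced; mean of two replicates.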

Sequence	enrichment
MASGILVNVKEEVTCPICLELLTQPLSLDCGHSFCQACLTANHKKSMLDKGESSCPVCRISYQPENIRPNRHVANIVEKLREVKLSPEGQKVDHCARHGEKLLLFCQEDGKVICWLCERSQEHRGHHTFLTEEVAREYQVKLQAALEMLRQKQQEAEELEADIREEKASWKTQIQYDKTNVLADFEQLRDILDWEESNELQNLEKEEEDILKSLTNSETEMVQQTQSLRELISDLEHRLQGSVMELLQGVDGVIKRTENVTLKKPETFPKNQRRVFRAPDLKGMLEVFRELTDVRRYWVDVTVAPNNISCAVISEDKRQVSSPKPQIIYQARGTRFPTFVNFNYCTGILGSQSITSGKHYWEVDVSKKTAWILGVCAGFQPDAMCNIEKNENYQPKYGYWVIGLEEGVKCSAFQDSSFHTPSVPFIVPLSVIICPDRVGVFLDYEACTVSFFNITNHGFLIYKFSHCSFSQPVFPYLNPRKCGVPMTLCSPSS [human TRIM5α, 330-340 = QARGTRFPTFV]	0.00105 ± 0.00069
MASGILVNVKEEVTCPICLELLTQPLSLDCGHSFCQACLTANHKKSMLDKGESSCPVCRISYQPENIRPNRHVANIVEKLREVKLSPEGQKVDHCARHGEKLLLFCQEDGKVICWLCERSQEHRGHHTFLTEEVAREYQVKLQAALEMLRQKQQEAEELEADIREEKASWKTQIQYDKTNVLADFEQLRDILDWEESNELQNLEKEEEDILKSLTNSETEMVQQTQSLRELISDLEHRLQGSVMELLQGVDGVIKRTENVTLKKPETFPKNQRRVFRAPDLKGMLEVFRELTDVRRYWVDVTVAPNNISCAVISEDKRQVSSPKPQIIYQARGTRYTFPTFVNFNYCTGILGSQSITSGKHYWEVDVSKKTAWILGVCAGFQPDAMCNIEKNENYQPKYGYWVIGLEEGVKCSAFQDSSFHTPSVPFIVPLSVIICPDRVGVFLDYEACTVSFFNITNHGFLIYKFSHCSFSQPVFPYLNPRKCGVPMTLCSPSS [human TRIM5α, 330-340 = QARGTRYTFPTFV]	0.164 ± 0.082
MASGILVNVKEEVTCPICLELLTQPLSLDCGHSFCQACLTANHKKSMLDKGESSCPVCRISYQPENIRPNRHVANIVEKLREVKLSPEGQKVDHCARHGEKLLLFCQEDGKVICWLCERSQEHRGHHTFLTEEVAREYQVKLQAALEMLRQKQQEAEELEADIREEKASWKTQIQYDKTNVLADFEQLRDILDWEESNELQNLEKEEEDILKSLTNSETEMVQQTQSLRELISDLEHRLQGSVMELLQGVDGVIKRTENVTLKKPETFPKNQRRVFRAPDLKGMLEVFRELTDVRRYWVDVTVAPNNISCAVISEDKRQVSSPKPQIIYGARGTLFPSFVNFNYCTGILGSQSITSGKHYWEVDVSKKTAWILGVCAGFQPDAMCNIEKNENYQPKYGYWVIGLEEGVKCSAFQDSSFHTPSVPFIVPLSVIICPDRVGVFLDYEACTVSFFNITNHGFLIYKFSHCSFSQPVFPYLNPRKCGVPMTLCSPSS [human TRIM5α, 330-340 = GARGTLFPSFV]	0.00239 ± 0.00085
MASGILVNVKEEVTCPICLELLTQPLSLDCGHSFCQACLTANHKKSMLDKGESSCPVCRISYQPENIRPNRHVANIVEKLREVKLSPEGQKVDHCARHGEKLLLFCQEDGKVICWLCERSQEHRGHHTFLTEEVAREYQVKLQAALEMLRQKQQEAEELEADIREEKASWKTQIQYDKTNVLADFEQLRDILDWEESNELQNLEKEEEDILKSLTNSETEMVQQTQSLRELISDLEHRLQGSVMELLQGVDGVIKRTENVTLKKPETFPKNQRRVFRAPDLKGMLEVFRELTDVRRYWVDVTVAPNNISCAVISEDKRQVSSPKPQIIYQARGTRFTFQSFVNFNYCTGILGSQSITSGKHYWEVDVSKKTAWILGVCAGFQPDAMCNIEKNENYQPKYGYWVIGLEEGVKCSAFQDSSFHTPSVPFIVPLSVIICPDRVGVFLDYEACTVSFFNITNHGFLIYKFSHCSFSQPVFPYLNPRKCGVPMTLCSPSS [human TRIM5α, 330-340 = QARGTRFTFQSFV]	0.175 ± 0.17
MASGILVNVKEEVTCPICLELLTQPLSLDCGHSFCQACLTANHKKSMLDKGESSCPVCRISYQPENIRPNRHVANIVEKLREVKLSPEGQKVDHCARHGEKLLLFCQEDGKVICWLCERSQEHRGHHTFLTEEVAREYQVKLQAALEMLRQKQQEAEELEADIREEKASWKTQIQYDKTNVLADFEQLRDILDWEESNELQNLEKEEEDILKSLTNSETEMVQQTQSLRELISDLEHRLQGSVMELLQGVDGVIKRTENVTLKKPETFPKNQRRVFRAPDLKGMLEVFRELTDVRRYWVDVTVAPNNISCAVISEDKRQVSSPKPQIIYQAPGTRYTFQSLTNFNYCTGILGSQSITSGKHYWEVDVSKKTAWILGVCAGFQPDAMCNIEKNENYQPKYGYWVIGLEEGVKCSAFQDSSFHTPSVPFIVPLSVIICPDRVGVFLDYEACTVSFFNITNHGFLIYKFSHCSFSQPVFPYLNPRKCGVPMTLCSPSS [human TRIM5α, 330-340 = QAPGTRYTFQSLT]	0.177 ± 0.04

Same assay, conditions: library: insertions and deletions

Sequence	enrichment
MASGILVNVKEEVTCPICLELLTQPLSLDCGHSFCQACLTANHKKSMLDKGESSCPVCRISYQPENIRPNRHVANIVEKLREVKLSPEGQKVDHCARHGEKLLLFCQEDGKVICWLCERSQEHRGHHTFLTEEVAREYQVKLQAALEMLRQKQQEAEELEADIREEKASWKTQIQYDKTNVLADFEQLRDILDWEESNELQNLEKEEEDILKSLTNSETEMVQQTQSLRELISDLEHRLQGSVMELLQGVDGVIKRTENVTLKKPETFPKNQRRVFRAPDLKGMLEVFRELTDVRRYWVDVTVAPNNISCAVISEDKRQVSSPKPQIIYGARGTRYQTFVNFNYCTGILCTGILGSQSITSGKHYWEVDVSKKTAWILGVCAGFQPDAMCNIEKNENYQPKYGYWVIGLEEGVKCSAFQDSSFHTPSVPFIVPLSVIICPDRVGVFLDYEACTVSFFNITNHGFLIYKFSHCSFSQPVFPYLNPRKCGVPMTLCSPSS [human TRIM5α, 5-codon duplication at 345]	0.346 ± 0.44
MASGILVNVKEEVTCPICLELLTQPLSLDCGHSFCQACLTANHKKSMLDKGESSCPVCRISYQPENIRPNRHVANIVEKLREVKLSPEGQKVDHCARHGEKLLLFCQEDGKVICWLCERSQEHRGHHTFLTEEVAREYQVKLQAALEMLRQKQQEAEELEADIREEKASWKTQIQYDKTNVLADFEQLRDILDWEESNELQNLEKEEEDILKSLTNSETEMVQQTQSLRELISDLEHRLQGSVMELLQGVDGVIKRTENVTLKKPETFPKNQRRVFRAPDLKGMLEVFRELTDVRRYWVDVTVAPNNISCAVISEDKRQVSSPKPQIIYGARGTTFVNFNYCTGILGSQSITSGKHYWEVDVSKKTAWILGVCAGFQPDAMCNIEKNENYQPKYGYWVIGLEEGVKCSAFQDSSFHTPSVPFIVPLSVIICPDRVGVFLDYEACTVSFFNITNHGFLIYKFSHCSFSQPVFPYLNPRKCGVPMTLCSPSS [human TRIM5α, 3-codon deletion at 335]	0.334 ± 0.26
MASGILVNVKEEVTCPICLELLTQPLSLDCGHSFCQACLTANHKKSMLDKGESSCPVCRISYQPENIRPNRHVANIVEKLREVKLSPEGQKVDHCARHGEKLLLFCQEDGKVICWLCERSQEHRGHHTFLTEEVAREYQVKLQAALEMLRQKQQEAEELEADIREEKASWKTQIQYDKTNVLADFEQLRDILDWEESNELQNLEKEEEDILKSLTNSETEMVQQTQSLRELISDLEHRLQGSVMELLQGVDGVIKRTENVTLKKPETFPKNQRRVFRAPDLKGMLEVFRELTDVRRYWVDVTVAPNNISCAVISEDKRQVSSPKPQIIYGARGTRYQTTRYQTFVNFNYCTGILGSQSITSGKHYWEVDVSKKTAWILGVCAGFQPDAMCNIEKNENYQPKYGYWVIGLEEGVKCSAFQDSSFHTPSVPFIVPLSVIICPDRVGVFLDYEACTVSFFNITNHGFLIYKFSHCSFSQPVFPYLNPRKCGVPMTLCSPSS [human TRIM5α, 5-codon duplication at 334]	0.765 ± 0.36
MASGILVNVKEEVTCPICLELLTQPLSLDCGHSFCQACLTANHKKSMLDKGESSCPVCRISYQPENIRPNRHVANIVEKLREVKLSPEGQKVDHCARHGEKLLLFCQEDGKVICWLCERSQEHRGHHTFLTEEVAREYQVKLQAALEMLRQKQQEAEELEADIREEKASWKTQIQYDKTNVLADFEQLRDILDWEESNELQNLEKEEEDILKSLTNSETEMVQQTQSLRELISDLEHRLQGSVMELLQGVDGVIKRTENVTLKKPETFPKNQRRVFRAPDLKGMLEVFRELTDVRRYWVDVTVAPNNISCAVISEDKRQVSSPKPQIIYGARGTRYQTCTGILGSQSITSGKHYWEVDVSKKTAWILGVCAGFQPDAMCNIEKNENYQPKYGYWVIGLEEGVKCSAFQDSSFHTPSVPFIVPLSVIICPDRVGVFLDYEACTVSFFNITNHGFLIYKFSHCSFSQPVFPYLNPRKCGVPMTLCSPSS [human TRIM5α, 6-codon deletion at 339]	1.11 ± 0.49
MASGILVNVKEEVTCPICLELLTQPLSLDCGHSFCQACLTANHKKSMLDKGESSCPVCRISYQPENIRPNRHVANIVEKLREVKLSPEGQKVDHCARHGEKLLLFCQEDGKVICWLCERSQEHRGHHTFLTEEVAREYQVKLQAALEMLRQKQQEAEELEADIREEKASWKTQIQYDKTNVLADFEQLRDILDWEESNELQNLEKEEEDILKSLTNSETEMVQQTQSLRELISDLEHRLQGSVMELLQGVDGVIKRTENVTLKKPETFPKNQRRVFRAPDLKGMLEVFRELTDVRRYWVDVTVAPNNISCAVISEDKRQVSSPKPQIIYGARGTRYQTFVNFNYNFNYCTGILGSQSITSGKHYWEVDVSKKTAWILGVCAGFQPDAMCNIEKNENYQPKYGYWVIGLEEGVKCSAFQDSSFHTPSVPFIVPLSVIICPDRVGVFLDYEACTVSFFNITNHGFLIYKFSHCSFSQPVFPYLNPRKCGVPMTLCSPSS [human TRIM5α, 4-codon duplication at 341]	0.662 ± 0.45
MASGILVNVKEEVTCPICLELLTQPLSLDCGHSFCQACLTANHKKSMLDKGESSCPVCRISYQPENIRPNRHVANIVEKLREVKLSPEGQKVDHCARHGEKLLLFCQEDGKVICWLCERSQEHRGHHTFLTEEVAREYQVKLQAALEMLRQKQQEAEELEADIREEKASWKTQIQYDKTNVLADFEQLRDILDWEESNELQNLEKEEEDILKSLTNSETEMVQQTQSLRELISDLEHRLQGSVMELLQGVDGVIKRTENVTLKKPETFPKNQRRVFRAPDLKGMLEVFRELTDVRRYWVDVTVAPNNISCAVISEDKRQVSSPKPQIIYGARGTRYQTFVNGILGSQSITSGKHYWEVDVSKKTAWILGVCAGFQPDAMCNIEKNENYQPKYGYWVIGLEEGVKCSAFQDSSFHTPSVPFIVPLSVIICPDRVGVFLDYEACTVSFFNITNHGFLIYKFSHCSFSQPVFPYLNPRKCGVPMTLCSPSS [human TRIM5α, 5-codon deletion at 342]	0.711 ± 0.079
MASGILVNVKEEVTCPICLELLTQPLSLDCGHSFCQACLTANHKKSMLDKGESSCPVCRISYQPENIRPNRHVANIVEKLREVKLSPEGQKVDHCARHGEKLLLFCQEDGKVICWLCERSQEHRGHHTFLTEEVAREYQVKLQAALEMLRQKQQEAEELEADIREEKASWKTQIQYDKTNVLADFEQLRDILDWEESNELQNLEKEEEDILKSLTNSETEMVQQTQSLRELISDLEHRLQGSVMELLQGVDGVIKRTENVTLKKPETFPKNQRRVFRAPDLKGMLEVFRELTDVRRYWVDVTVAPNNISCAVISEDKRQVSSPKPRYQTFVNFNYCTGILGSQSITSGKHYWEVDVSKKTAWILGVCAGFQPDAMCNIEKNENYQPKYGYWVIGLEEGVKCSAFQDSSFHTPSVPFIVPLSVIICPDRVGVFLDYEACTVSFFNITNHGFLIYKFSHCSFSQPVFPYLNPRKCGVPMTLCSPSS [human TRIM5α, 9-codon deletion at 326]	0.833 ± 0.43

± gives the standard deviation of the averaged measurements. Restriction of a single-cycle SIVsab GFP reporter by TRIM5α v1-loop variants in CRFK cells. Human variants: read share among cells still uninfected after two challenges over input, higher = gained restriction. Rhesus variants: share among infected cells over input, higher = lost restriction. Reporter dose not given per row. No active / inactive call per row; the paper calls a change when both replicates lie above its controls (mean + 2 SD of stop or wild-type variants, or the top frameshift score). Residues outside the varied loop are taken from Swiss-Prot. The paper reads the human single-substitution scores as noise; they and the rhesus combinations repeat poorly (rank correlation 0.3 to 0.4), indel scores repeat only for the top variants, rhesus substitutions well (0.9).
